Consider 57 compounds from the supplement of paper PMC9446081.

Out of some 39,000 compounds screened, about 220 (0.56%) showed activity. This is one part of the list.
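Further: static incubation at 37 °C against the wild-type strain, values averaged over two biological replicates.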

The test system of the experiment is Escherichia coli K-12 BW25113. Nature of the experiment: relative growth (OD600 normalised to plate interquartile mean) (fraction); higher = less growth inhibition, active = 0.2 or less. Conditions: 50 µM; LB; incubation time: overnight (16-24 h).
Consider `CCS(=O)(=O)Nc1ccc2c(c1)C(=O)N(C)[C@H]1CC[C@@H](CC(=O)N[C@@H]3CCN(Cc4ccccc4)C3)O[C@@H]1CO2`, for which the relative growth is inactive: 1.

With `C[C@H](CO)N1C[C@H](C)[C@H](CN(C)C(=O)Nc2ccc(F)cc2)Oc2c(NS(=O)(=O)c3cn(C)cn3)cccc2C1=O`, the relative growth was inactive: 0.979.

Regarding `C[C@H](CO)N1C[C@H](C)[C@@H](CN(C)CC2CCCCC2)OCCCC[C@H](C)Oc2ccc(NC(=O)c3ccccc3)cc2C1=O`, the relative growth was inactive: 0.946.

As to `COc1ccc(S(=O)(=O)Nc2ccc3c(c2)C(=O)N([C@H](C)CO)C[C@H](C)[C@@H](CN(C)C(=O)CCC(F)(F)F)OCCCC[C@H](C)O3)cc1`, the relative growth is inactive: 0.993.

For `COc1ccc(CN(c2ncns2)S(=O)(=O)c2ccc(Oc3c(F)cc(F)cc3-c3ccnn3C)c(C#N)c2)c(OC)c1`, the relative growth is inactive: 0.995.

For the compound `C[C@@H]1CN([C@H](C)CO)C(=O)c2cc(-c3cccc(C#N)c3)cnc2O[C@@H]1CN(C)C(=O)c1cnccn1`, the relative growth is inactive: 0.999.

Consider `C[C@H](CO)N1C[C@H](C)[C@H](CN(C)C(=O)C2CCOCC2)Oc2ncc(/C=C/c3ccccc3)cc2C1=O`, for which the relative growth is inactive: 1.

Take `Cc1ccc(S(=O)(=O)Nc2ccc3c(c2)C(=O)N([C@H](C)CO)C[C@H](C)[C@H](CN(C)C(=O)Nc2cccc4ccccc24)O3)cc1`: the relative growth was inactive: 0.993.

In the case of `C[C@H](O)C#Cc1ccc2c(c1)O[C@@H](CN(C)C(=O)c1ccccc1)[C@H](C)CN([C@H](C)CO)S2(=O)=O`, the relative growth was inactive: 1.01.

Take `COc1ccc(CNC(=O)C[C@H]2CC[C@@H]3[C@H](COc4ccc(NC(=O)C(C)C)cc4C(=O)N3C)O2)cc1`: the relative growth is inactive: 1.

For the compound `C[C@H]1CCCCO[C@H](CN(C)S(=O)(=O)c2ccc(F)cc2)[C@@H](C)CN([C@@H](C)CO)C(=O)c2cc(NC(=O)NC3CCCCC3)ccc2O1`, the relative growth was inactive: 0.986.

On to `CCOC(=O)c1cc2c(c(-c3ccccc3)n1)[C@@H](CCO[Si](C)(C)C(C)(C)C)N(S(=O)(=O)C(C)(C)C)C2`, for which the relative growth is inactive: 1.08.

For the compound `C[C@@H]1CN([C@H](C)CO)S(=O)(=O)c2ccc(C#Cc3ccccc3F)cc2O[C@H]1CN(C)CC1CCOCC1`, the relative growth was inactive: 0.999.

Consider `C[C@@H]1C[C@H](C)CN(S(=O)(=O)N2CCC[C@H](C(=O)NCCN3CCOCC3)C2)C1`, for which the relative growth was inactive: 0.929.

On to `COc1ccc(CN(C)C[C@@H]2Oc3ccc(NC(=O)C4CC4)cc3CC(=O)N([C@H](C)CO)C[C@@H]2C)cc1`, for which the relative growth is inactive: 1.01.

On to `COc1ccc(C#Cc2cnc3c(c2)C(=O)N([C@H](C)CO)C[C@@H](C)[C@@H](CN(C)CC2CCOCC2)O3)cc1`, for which the relative growth is inactive: 1.02.

Turning to `C=CCN1C(=O)[C@]2(O[C@H](CCn3cc([C@H](O)c4ccccc4)nn3)[C@@H]([Si](C)(C)c3ccc(OC)cc3)[C@@H]2C)c2ccccc21`, the relative growth is inactive: 1.04.

For `Cc1noc(C)c1S(=O)(=O)Nc1ccc2c(c1)C(=O)N([C@H](C)CO)C[C@@H](C)[C@@H](CN(C)S(=O)(=O)c1cn(C)cn1)OCCCC[C@H](C)O2`, the relative growth is inactive: 0.984.

On to `CN(C)CC(=O)N1CC2(C1)[C@@H](c1ccccc1)[C@@H](CO)N2S(C)(=O)=O`, for which the relative growth is inactive: 0.97.

As to `C[C@H](CO)N1C[C@H](C)[C@@H](CN(C)C(=O)c2ccc(F)cc2)Oc2cc(Br)ccc2S1(=O)=O`, the relative growth is inactive: 1.01.

On to `Cc1noc(C)c1NC(=O)Nc1cccc2c1O[C@H](CN(C)Cc1ccc(C(=O)Nc3ccccc3N)cc1)[C@H](C)CN([C@H](C)CO)C2=O`, for which the relative growth was inactive: 0.991.

Turning to `C[C@H]1CN([C@@H](C)CO)C(=O)c2cc(NC(=O)Nc3ccc(F)cc3)ccc2O[C@H]1CN(C)Cc1ccc(C(F)(F)F)cc1`, the relative growth is inactive: 0.973.

In the case of `C[C@H](CO)N1C[C@H](C)[C@@H](CN(C)C(=O)Nc2ccccc2)Oc2ccc(NS(=O)(=O)c3cn(C)cn3)cc2CC1=O`, the relative growth is inactive: 0.987.

Turning to `COc1ccc(NC(=O)Nc2ccc3c(c2)C(=O)N([C@H](C)CO)C[C@H](C)[C@@H](CN(C)C(=O)CCC(F)(F)F)OCCCC[C@H](C)O3)cc1`, the relative growth was inactive: 1.01.

As to `Cc1noc(C)c1NC(=O)Nc1ccc2c(c1)C(=O)N([C@@H](C)CO)C[C@@H](C)[C@@H](CN(C)S(=O)(=O)c1ccc(Cl)cc1)OCCCC[C@@H](C)O2`, the relative growth is inactive: 0.988.

With `C[C@H]1CCCN(C(=O)N2c3ccccc3Sc3ccccc32)C1`, the relative growth is inactive: 1.01.

As for `CC(C)NC(=O)N(C)C[C@@H]1Oc2cc(-c3ccccc3F)ccc2S(=O)(=O)N([C@@H](C)CO)C[C@@H]1C`, the relative growth was inactive: 0.987.

Turning to `C[C@@H]1CN([C@@H](C)CO)C(=O)Cc2cc(NC(=O)Cn3cnnn3)ccc2O[C@@H]1CN(C)Cc1ccc(Oc2ccccc2)cc1`, the relative growth is inactive: 1.01.

Consider `O=C1O[C@@H](c2ccccc2)[C@@H](c2ccccc2)N2[C@@H](c3ccc(O)cc3)[C@]3(C(=O)Nc4ccc(C#CC5=CCCCC5)cc43)[C@@H](C(=O)NC[C@H](O)c3ccccc3)[C@H]12`, for which the relative growth was inactive: 1.

As for `C[C@H](CO)N1C[C@H](C)[C@H](CN(C)C(=O)Nc2ccc3c(c2)OCO3)Oc2ccc(NS(=O)(=O)c3cn(C)cn3)cc2C1=O`, the relative growth is inactive: 1.

Consider `C[C@@H]1CN([C@@H](C)CO)C(=O)c2cccc(NS(C)(=O)=O)c2O[C@H]1CN(C)Cc1ccc(C(=O)O)cc1`, for which the relative growth was inactive: 0.996.

On to `C[C@@H]1CCCCO[C@@H](CN(C)S(=O)(=O)c2ccccc2)[C@H](C)CN([C@@H](C)CO)C(=O)c2cc(NC(=O)Nc3ccc(F)cc3)ccc2O1`, for which the relative growth was inactive: 1.01.

With `C[C@@H]1CN([C@H](C)CO)C(=O)c2cccc(NS(=O)(=O)c3ccc(F)cc3)c2O[C@H]1CN(C)C(=O)Nc1cccc2ccccc12`, the relative growth was inactive: 0.999.

For the compound `COc1ccc(NC(=O)Nc2cccc3c2O[C@@H](CN(C)CC2CCCCC2)[C@H](C)CN([C@H](C)CO)C3=O)cc1`, the relative growth was inactive: 1.

As to `O=C(C[C@@H]1C[C@@H]2c3cc(NC(=O)Nc4ccc(C(F)(F)F)cc4)ccc3O[C@@H]2[C@H](CO)O1)NCc1cc(F)ccc1F`, the relative growth was inactive: 0.982.

Turning to `C[C@H](CO)N1C[C@H](C)[C@@H](CN(C)CC2CCCCC2)OCCCC[C@H](C)Oc2ccc(NC(=O)c3ccncc3)cc2C1=O`, the relative growth is inactive: 1.

Turning to `CO[C@@H](CN(C)C(=O)c1ccc2c(c1)OCO2)[C@@H](C)CN([C@@H](C)CO)S(=O)(=O)c1ccc(C)cc1`, the relative growth was inactive: 0.935.

Take `C[C@H]1CN([C@@H](C)CO)C(=O)Cc2cc(NC(=O)C3CC3)ccc2O[C@@H]1CN(C)S(=O)(=O)c1cccs1`: the relative growth is inactive: 0.97.

Turning to `COc1ccc2c3c(n(c2c1)C)[C@@H](CO)N(Cc1cc(cc(c1)OC)OC)C[C@]13CN(C1)S(=O)(=O)c1cn(cn1)C`, the relative growth is inactive: 1.01.

`COc1ccc(S(=O)(=O)N(C)C[C@@H]2Oc3ccc(NC(=O)c4ccncc4)cc3CC(=O)N([C@H](C)CO)C[C@H]2C)cc1`: the relative growth was inactive: 0.999.

In the case of `O=C(CN1CCOCC1)N[C@H]1CC[C@H](CCNC(=O)C2CCCCC2)O[C@@H]1CO`, the relative growth is inactive: 0.988.

For `CN1C(=O)c2cc(NC(=O)C3CCCC3)ccc2OC[C@@H]2O[C@H](CC(=O)NCCc3ccncc3)CC[C@@H]21`, the relative growth is inactive: 0.991.

As for `COc1ccc(S(=O)(=O)Nc2ccc3c(c2)CC(=O)N([C@@H](C)CO)C[C@H](C)[C@@H](CN(C)S(=O)(=O)c2ccc(C)cc2)O3)cc1`, the relative growth was inactive: 1.

On to `CC(C=CC=C(C)C=CC(=O)C1(C)CC(O)CC1(C)C)=CC=CC=C(C)C=CC=C(C)C=CC1=C(C)CC(O)CC1(C)C` (configuration not stated), for which the relative growth was inactive: 1.05.

As to `C[C@@H]1CN([C@H](C)CO)C(=O)CCCn2nncc2CO[C@@H]1CN(C)C(=O)Nc1ccc(C(F)(F)F)cc1`, the relative growth is inactive: 0.966.

With `O=C(C[C@@H]1CC[C@H]2[C@@H](COC[C@H](O)CN2C(=O)Nc2cc(Cl)cc(Cl)c2)O1)N1CCOCC1`, the relative growth is inactive: 0.977.

For the compound `CO[C@H]1CN(C)C(=O)c2ccc(NC(=O)c3ccccc3)cc2OC[C@@H](C)N(C(=O)CN(C)C)C[C@H]1C`, the relative growth is inactive: 1.01.

For `C[C@@H]1CN([C@@H](C)CO)C(=O)c2c(c3ccccc3n2C)-c2ccccc2CO[C@@H]1CN(C)Cc1ccc(C(F)(F)F)cc1`, the relative growth is inactive: 1.09.

Turning to `COc1ccc(S(=O)(=O)Nc2ccc3c(c2)C(=O)N([C@H](C)CO)C[C@@H](C)[C@H](CN(C)S(C)(=O)=O)O3)cc1`, the relative growth was inactive: 1.01.

For the compound `C[C@H]1CCCCO[C@H](CN(C)C(=O)Nc2ccc3c(c2)OCO3)[C@@H](C)CN([C@@H](C)CO)C(=O)c2cc(NS(=O)(=O)c3cccs3)ccc2O1`, the relative growth is inactive: 1.02.

`Cc1ccc(S(=O)(=O)N(C)C[C@H]2OCCCC[C@@H](C)Oc3ccc(NC(=O)C4CCCCC4)cc3C(=O)N([C@@H](C)CO)C[C@@H]2C)cc1`: the relative growth is inactive: 1.02.

On to `C[C@H]1CN([C@@H](C)CO)C(=O)c2cccc(NC(=O)c3ccncc3)c2O[C@@H]1CN(C)Cc1ccc(Oc2ccccc2)cc1`, for which the relative growth was inactive: 1.01.

On to `C[C@H]1CN([C@@H](C)CO)C(=O)Cc2cc(NS(=O)(=O)c3cccs3)ccc2O[C@@H]1CN(C)Cc1ccncc1`, for which the relative growth is inactive: 1.

With `CC1OC(Oc2c(-c3ccc(O)c(O)c3)oc3cc(O)cc(O)c3c2=O)C(O)C(O)C1O` (configuration not stated), the relative growth is inactive: 1.14.

Take `O=C(C[C@@H]1C[C@@H]2c3cc(NC(=O)NC4CCCC4)ccc3O[C@@H]2[C@@H](CO)O1)NCCN1CCCCC1`: the relative growth is inactive: 0.983.

Take `CN1C(=O)c2cc(NC(=O)C3CCCC3)ccc2OC[C@@H]2O[C@@H](CC(=O)NCCc3ccncc3)CC[C@H]21`: the relative growth is inactive: 1.01.

`COc1ccc(S(=O)(=O)Nc2ccc3c(c2)C(=O)N([C@H](C)CO)C[C@H](C)[C@@H](CN(C)Cc2ccc(-c4ccccc4)cc2)O3)cc1`: the relative growth is inactive: 0.995.
